# PubChem BioAssay AID463173 (ICCB-Longwood Screening Facility, Harvard Medical School, 2010)
# In all, about 52,000 compounds went through this assay and about 1,700 (3.3%) were called active. Rule as the data show it: active = survival mostly below about 52% (no sharp cut-off); inactive = mostly above about 56%. The list shows a part of the results.
# System: Wild type
# Test: growth inhibition of S. aureus wild type versus tarO mutant, primary screen, teichoic acid synthesis inhibitors, RN4220, OD600 (AID 463173)
# Details: S. aureus RN4220 wild type/DeltatarO growth, OD600, 18 h, stronger effect = lower value, screened at 18.75 µg/mL (by protocol)
row,SMILES,survival
1,Cc1ccc(C(=O)Nc2ccc3c(c2)n(C)c(=O)c(=O)n3C)cc1,inactive: 78%
2,CCc1ccc(OC(C)C(=O)N2CCC(c3nc4ccccc4o3)CC2)cc1 (stereo not drawn),inactive: 92%
3,Cc1ccc(NC(=O)Cn2nc(C(=O)Nc3ccc(C)cc3)ccc2=O)cc1,inactive: 64%
4,CC1CCN(Cc2c(O)ccc3c(=O)c(Oc4ccccc4Cl)c(C(F)(F)F)oc23)CC1,inactive: 75%
5,Cc1cc(C)nc(SCc2noc(-c3ccc(Cl)cc3)n2)n1,inactive: 111%
6,CC(=O)Nc1ccc(NC(=O)CCc2nc3cccnc3n2Cc2cccs2)cc1,inactive: 137%
7,COc1ccc(NC(=O)CC2C(=O)N(c3cccc(OC)c3)C(=O)N2CCc2cccs2)cc1 (stereo not drawn),inactive: 79%
8,Cc1ccc(NC(=O)Cn2c(=O)n(Cc3nc(-c4ccccc4)no3)c(=O)c3cc4c(cc32)OCO4)cc1F,inactive: 89%
9,O=C(COc1ccccc1F)Nc1ccc2nc(SCCOc3ccccc3)sc2c1,inactive: 92%
10,CCCOc1ccc(C(=O)Nc2ccc3oc(-c4ccncc4)nc3c2)cc1,inactive: 67%
11,O=C(Nc1nnc(N2CCCCCC2)s1)Nc1cc(F)ccc1F,inactive: 109%
12,CCOc1ccc(CCNC(=O)C2CCN(C(=O)N3CC(CC)Oc4ccccc43)CC2)cc1 (stereo not drawn),inactive: 91%
13,CCCCN(CC)CCCNC(=O)CS(=O)(=O)Cc1nc(-c2ccc(C)cc2)oc1C,inactive: 92%
14,COc1ccc(NC(c2nnc(-c3ccccc3)o2)c2ccccc2F)cc1Cl (stereo not drawn),inactive: 65%
15,COc1cc(NC(=O)CSc2nnc(C)n3c2cc2oc(C)cc23)cc(OC)c1,inactive: 65%
16,Cc1ccccc1-c1noc(-c2ccc(N3CCCCC3)c([N+](=O)[O-])c2)n1,inactive: 124%
17,O=C(NCc1ccc(Cl)cc1)c1cnc2sc(N3CCOCC3)nn2c1=O,inactive: 64%
18,CCOCCCN(Cc1ccco1)S(=O)(=O)c1cc2c(cc1Cl)NC(=O)CO2,inactive: 68%
19,Cc1c2cnn(CC(=O)NCc3ccc(F)cc3)c(=O)c2c(C)n1Cc1cccc(Cl)c1,inactive: 94%
20,COCCCNC(=O)c1c(NC(=O)Cc2coc3c(C)c(C)ccc23)sc2c1CCCC2,inactive: 87%
21,COc1cccc(CNC(=O)CCS(=O)(=O)c2ccc3c(c2)oc(=O)n3C)c1,inactive: 59%
22,COCCN(Cc1cccs1)S(=O)(=O)c1cc(-c2cc(C)no2)ccc1C,inactive: 131%

row,SMILES,survival
1,Cn1nnc2c(N3CCN(c4cccc(Cl)c4)CC3)ncnc21,inactive: 73%
2,CCCc1cc(NCCc2ccc(OC)cc2)n2ncnc2n1,inactive: 106%
3,CCC(Sc1nnc2c(n1)[nH]c1ccccc12)C(=O)Nc1nnc(C(C)C)s1 (stereo not drawn),inactive: 89%
4,COC(=O)C1C(C(C)C)N(c2ccccc2)OC1(C)O (stereo not drawn),inactive: 106%
5,CCCCOC(=O)c1c(N)n(-c2ccc(OC)cc2OC)c2nc3ccccc3nc12,inactive: 86%
6,Cc1ccc(CCNS(=O)(=O)c2cc(-c3cc(C)no3)ccc2C)cc1,inactive: 72%
7,Cc1cccc(-n2ncc(C(=O)N3CCOCC3)c2C2CCN(C(=O)OC(C)(C)C)CC2)c1,inactive: 89%
8,CC(C)N(C(=O)Cn1cc(SCC(=O)Nc2ccccc2F)c2ccccc21)C(C)C,inactive: 86%
9,CCOc1ccc(C(=O)NCc2ccc3c(c2)CCN3C(=O)c2ccc(Cl)cc2)cc1,inactive: 81%
10,O=C(NC1CC(=O)N(c2cccc(F)c2)C1)c1cccs1 (stereo not drawn),inactive: 77%
11,Cc1c(Cl)cccc1NC(=O)N1CCN(C(=O)c2nsc3ccccc23)CC1,inactive: 133%
12,Cc1ccccc1Nc1cc(C(=O)NCCCN2CCN(c3cccc(Cl)c3)CC2)c2ccccc2n1,inactive: 63%
13,CC(C)C(=O)Nc1ccc2nc(SCC(=O)N3CCCC3)sc2c1,inactive: 87%
14,CCCN(C(=O)c1cc2c(=O)oc3ccccc3c2s1)c1ccc(CC)cc1,inactive: 69%
15,CCc1ccc(OCC(=O)NC(Cc2c[nH]c3ccccc23)C(=O)O)cc1 (stereo not drawn),inactive: 62%
16,Cc1c(CCC(=O)NCCc2ccccc2)c(=O)oc2c(C)c(O)ccc12,inactive: 90%
17,CCc1ccc(NC(=O)c2ccc(CN3CC(=O)N4CCCCC4C3=O)cc2)cc1 (stereo not drawn),inactive: 87%
18,Cc1ccc(C(C)C)c(OCCSc2nc(-c3ccccc3F)nc3cc(=O)[nH]n23)c1,inactive: 82%
19,Cc1ccc(Cn2c(C(=O)O)c(CNCc3ccc(OC(C)C)cc3)c3ccc(C)cc32)cc1,inactive: 22%
20,CC(=O)OCC1OC(n2ccc3ccccc32)C(OC(C)=O)C(OC(C)=O)C1OC(C)=O (stereo not drawn),inactive: 105%
21,COc1ccc(OC)c(NC(=O)CSc2ccc(-c3cccs3)nn2)c1,inactive: 88%
22,COc1cc(OC)c(NC(=O)C2CCN(S(=O)(=O)c3c(C)noc3/C=C/c3c(C)cc(C)cc3C)CC2)cc1Cl,inactive: 70%

row,SMILES,survival
1,COc1cccc(CNC(=O)c2cc(C)nc3c2c(C)nn3-c2ccc(C)cc2)c1,inactive: 81%
2,COc1cccc(-n2c(=O)c3c(C)c(C)sc3n(CC(=O)NCCc3ccc(OC)c(OC)c3)c2=O)c1,inactive: 89%
3,COc1cccc(OCc2nc3ccccc3n2CCOc2ccc(C)cc2)c1,inactive: 62%
4,CN(Cc1ccccc1)C(=O)c1cn(C)c2ccc(S(=O)(=O)N3CCCCC3)cc2c1=O,inactive: 79%
5,Cn1c(=O)oc2cc(S(=O)(=O)NC(Cc3ccccc3)C(=O)Nc3ccc(F)cc3)ccc21 (stereo not drawn),inactive: 79%
6,CCOC(=O)c1c(NC(=O)C(C)Sc2cn(CCNC(=O)c3c(F)cccc3F)c3ccccc23)sc2c1CCC2 (stereo not drawn),inactive: 85%
7,CCn1c(C(=O)NCc2ccc(F)cc2)cc2oc3ccccc3c21,inactive: 115%
8,CC12CN3CC(c4ccccc4)(CN(C1)C3c1ccc(O)cc1)C2=O (stereo not drawn),inactive: 60%
9,COc1ccc(OC)c(NS(=O)(=O)c2cc3c(cc2Cl)N(C(C)=O)CCO3)c1,inactive: 88%
10,CCCC(=O)Nc1nncs1,inactive: 109%
11,CCOc1ccc(NC(=O)CC2C(=O)N(c3ccc(F)cc3)C(=O)N2Cc2ccc(OC)c(OC)c2)cc1 (stereo not drawn),inactive: 85%
12,COC(=O)c1c(NC(=O)C(C)Oc2ccc(Cl)c(C)c2)sc(C)c1C (stereo not drawn),active: 10%
13,Cc1ccc(-c2cc(C(=O)Nc3cc([N+](=O)[O-])ccc3C)no2)cc1F,inactive: 94%
14,Cc1ccc(Sc2c(C)nn(-c3ccccc3)c2OC(=O)C(C)(C)C)cc1,active: -6%
15,CCCc1nc(NCCc2cccs2)c2nnn(Cc3ccccc3Cl)c2n1,inactive: 104%
16,COc1ccc(OC)c(CCNC(=O)CS(=O)(=O)Cc2nc(-c3cccc(Cl)c3)oc2C)c1,inactive: 70%
17,COc1ccc(CCNc2oc(/C=C/c3cc(OC)c(OC)c(OC)c3)nc2C#N)cc1OC,inactive: 85%
18,CCOC(=O)c1ccc(N2C(=O)c3n[nH]c(-c4cccs4)c3C2c2ccc(OCC)cc2)cc1 (stereo not drawn),inactive: 88%
19,CCN1C(=O)c2ccccc2S(=O)c2ccc(C(=O)NCc3ccc(OC)cc3)cc21 (stereo not drawn),inactive: 83%
20,Cc1ccc(C)c2sc(NC(=O)c3ccc(S(=O)(=O)N4CCC(C)CC4)cc3)nc12,inactive: 88%
21,O=C(CSc1nc2cc(C(=O)NC3CCCC3)ccc2c(=O)n1CC1CCCO1)c1cccc(Cl)c1 (stereo not drawn),active: -3%
22,O=C(NCCc1ccc(Cl)cc1)c1cnc2sc(N3CCOCC3)nn2c1=O,inactive: 73%

row,SMILES,survival
1,COc1cc(OC)c(Nc2nc3ccccc3c3nncn23)cc1Cl,inactive: 136%
2,O=C(NCc1ccccc1Cl)c1ccc2c(c1)NC(=O)C(CS(=O)(=O)Cc1ccc(F)cc1Cl)N2 (stereo not drawn),inactive: 72%
3,Cc1oc(-c2cccc(Cl)c2)nc1CSc1nncn2c1cc1occc12,inactive: 104%
4,CCOc1ccccc1NC(=O)NCc1ccc2c(c1)CCN2C(=O)c1ccccc1,inactive: 152%
5,COc1ccc(/C=C\c2onc(C)c2S(=O)(=O)N2CCC(C(=O)Nc3ccc(F)cc3F)CC2)cc1,inactive: 80%
6,CN(C)c1ccc(CN(Cc2ccco2)C(=O)c2ccc(C(C)(C)C)cc2)cc1,inactive: 70%
7,Cc1ccc(-c2nc3nc(C)cc(N4CCN(c5cccc(C)c5C)CC4)n3n2)cc1,inactive: 115%
8,Cc1c(Cl)ccc2sc(N3CCN(C(=O)C(C)C)CC3)nc12,inactive: 94%
9,CCOC(=O)c1c(C)oc2nc(C)nc(Nc3ccc(C)c(Cl)c3)c12,inactive: 80%
10,CCOC(=O)c1c(NC(=O)c2cc(C(C)C)on2)sc(C(C)=O)c1C,inactive: 120%
11,[O-][n+]1onc2c1CCC1N(O)C(c3ccccc3)CC21O (stereo not drawn),inactive: 122%
12,O=C(O)CN1CC(=O)Nc2ccccc21,inactive: 110%
13,CCc1ccc(CNC(=O)c2cc(=O)[nH]c3ccc(S(=O)(=O)N4CCCCC4)cc23)cc1,inactive: 91%
14,COc1ccc(CC(=O)Nc2ccc3nc(Nc4ccc(OC)cc4)cc(C)c3c2)cc1,inactive: 47%
15,CC(C)NC(=O)N1CCN(S(=O)(=O)c2ccc3c(ccn3C)c2)CC1,inactive: 88%
16,Cc1ccc(C)c(NC(=O)CN(C)S(=O)(=O)c2ccc3c(c2)CCC(=O)N3)c1,inactive: 75%
17,CCOC(=O)c1cc(-c2ccc(OC)cc2)n(CCC(=O)NCc2ccc(OC)cc2)c1C,inactive: 79%
18,CC(C(=O)c1ccccc1)n1cnc2ccccc2c1=O (stereo not drawn),inactive: 105%
19,CCCc1ncc(C(O)c2ccccc2OC)n1C (stereo not drawn),inactive: 109%
20,Cc1ccccc1C(=O)Nc1nnc2n1CCS2,inactive: 71%
21,CCCS(=O)(=O)c1nc(S(=O)(=O)c2ccc(C)cc2)c(N(C)Cc2ccccc2)s1,inactive: 78%
22,COc1cccc(-c2ccc3c(N)c(C(=O)Nc4cc(C(F)(F)F)ccc4OC)sc3n2)c1,inactive: 104%
